Data taken from US20220380424A1 (CHONG KUN DANG PHARMACEUTICAL, published 2022).

T1: human Nodal protein (R&D systems, 3218-ND-025/CF) (human, UniProt Q96S42 238-347)
T1 construct: Bought protein
T1 sequence (looked up): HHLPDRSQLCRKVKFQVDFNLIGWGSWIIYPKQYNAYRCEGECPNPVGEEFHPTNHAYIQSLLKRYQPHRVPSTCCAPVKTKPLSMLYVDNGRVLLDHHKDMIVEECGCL


What was measured:
[1] = target: T1, human Nodal protein (R&D systems, …); assay: SPR (BIAcore), human Nodal fixed on CM5 chip, fusion protein as analyte 31.25-500 nM, bivalent analyte model
Procedure: (§1) The binding affinity between human Nodal protein and the human Lefty A fusion protein variant was measured using BIAcore.
(§2) Specifically, 50 RU of human Nodal (R&D systems, 3218-ND-025/CF) protein was fixed to a CM5 sensor chip. The human Lefty A fusion protein and their variants were diluted to concentrations of 500, 250, 125, 62.5 and 31.25 nM and injected sequentially from lower concentrations. Next, each dilution was associated by injection at a flow rate of 30 μl/min for 3 minutes and dissociated using running buffer for 5 minutes. The chip was regenerated using 15 μl of 50 mM NaOH. The association and dissociation rates for each cycle were evaluated using the “Bivalent analyte” model in BIAevaluation software version 4.1, and the BIAcore data are summarized in Table 14 below.

[2] = target: T1, human Nodal protein (R&D systems, …); assay: SPR (BIAcore), human Nodal fixed on CM5 chip, fusion protein as analyte 31.25-500 nM, bivalent analyte model; second step
Procedure: as §1, §2

Row | Kd [1] | ka2 [2] | kd2 [2] | Binder
1 | 124 nM | 0.00546 | 0.0341 | CX201 (42 LFc variant with V63A, R66Q, G132R and a change at R135) (Fc fusion) LTEEQLLGSLLRQLQLSEVPVLDRADMEKLVIPAHVRAQYVALLQRSHGDRSGGKGFSQSFREVAGRFLASEASTHLLVFGMEQRLPPNSELVQAVLRLFQEPVPKAALHRHGGLSPRSAQARVTVEWLRVRDDGSNRTSLIDSRLVSVHESGWKAFDVTEAVNFWQQLSRPRQPLLLQVSVQREHLGPLASGAHKLVRFASQGAPAGLGEPQLELHTLDLRDYGAQGDCDPEAPMTEGTRCCRQEMYIDLQGMKWAKNWVLEPPGFLAYECVGTCQQPPEALAFNWPFLGPRQCIASETASLPMIVSIKEGGRTRPQVVSLPNMRVQKCSCASDGALVPRRLQPSGGGGSGGGGSGGGGS[no letters for human IgG1 Fc]
2 | 534 nM | 0.000277 | 2.3e-05 | CX197 (42 LFc with E24G, S38K, V42T, K50E, A55T, V63A, R66Q, G132R and R135A) (Fc fusion) LTGEQLLGSLLRQLQLKEVPTLDRADMEELVIPTHVRAQYVALLQRSHGDRSGGKGFSQSFREVAGRFLASEASTHLLVFGMEQRLPPNSELVQAVLRLFQEPVPKAALHRHGALSPRSAQARVTVEWLRVRDDGSNRTSLIDSRLVSVHESGWKAFDVTEAVNFWQQLSRPRQPLLLQVSVQREHLGPLASGAHKLVRFASQGAPAGLGEPQLELHTLDLRDYGAQGDCDPEAPMTEGTRCCRQEMYIDLQGMKWAKNWVLEPPGFLAYECVGTCQQPPEALAFNWPFLGPRQCIASETASLPMIVSIKEGGRTRPQVVSLPNMRVQKCSCASDGALVPRRLQPSGGGGSGGGGSGGGGS[no letters for human IgG1 Fc]
3 | 72.9 nM | 0.00819 | 0.0446 | 42 LFc (human Lefty A 42 kDa fragment L22 to P366 with R74G/R77G/R132G, fused at its C-terminus to human IgG1 Fc via the SGGGGSGGGGSGGGGS linker) (Fc fusion, Expressed in CHO-S cells and purified on Protein A; also called X-42; 42 LFc fusion protein) LTEEQLLGSLLRQLQLSEVPVLDRADMEKLVIPAHVRAQYVVLLRRSHGDRSGGKGFSQSFREVAGRFLASEASTHLLVFGMEQRLPPNSELVQAVLRLFQEPVPKAALHGHGRLSPRSAQARVTVEWLRVRDDGSNRTSLIDSRLVSVHESGWKAFDVTEAVNFWQQLSRPRQPLLLQVSVQREHLGPLASGAHKLVRFASQGAPAGLGEPQLELHTLDLRDYGAQGDCDPEAPMTEGTRCCRQEMYIDLQGMKWAKNWVLEPPGFLAYECVGTCQQPPEALAFNWPFLGPRQCIASETASLPMIVSIKEGGRTRPQVVSLPNMRVQKCSCASDGALVPRRLQPSGGGGSGGGGSGGGGS[no letters for human IgG1 Fc]
